Experimental data as given in PubChem BioAssay AID624414 (National Center for Advancing Translational Sciences (NCATS), 2012).
The campaign covered roughly 410,000 compounds. About 480 (0.12%) were called active. This list was built around the results that the source calls inconclusive (neither active nor inactive); the mix of calls is not that of the screen. Cut-off read from the data, not from the text of the source: active = activation above about 50%; inconclusive = mostly about 30% to 49%; inactive = weaker than that.

Each compound was assayed against Mucolipin-1 (Homo sapiens) (UniProt Q9GZU1) (assay: qHTS for Agonists of the Human Mucolipin Transient Receptor Potential 1 (TRPML1)). Details: TRPML1-expressing cells, Ca2+ dye fluorescence, FDSS; stronger effect = higher value.
Outline: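 Agonist activity was taken from a 110 s kinetic Ca2+ dye read on the FDSS after pinning compounds onto TRPML1-DL cells. The cells were seeded at 1,500/well with Tet inducer, incubated about 16 h, then dye-loaded at room temperature.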
Note: 0% is about no effect.

Sequence of UniProt Q9GZU1 (Q9GZU1 whole entry, looked up): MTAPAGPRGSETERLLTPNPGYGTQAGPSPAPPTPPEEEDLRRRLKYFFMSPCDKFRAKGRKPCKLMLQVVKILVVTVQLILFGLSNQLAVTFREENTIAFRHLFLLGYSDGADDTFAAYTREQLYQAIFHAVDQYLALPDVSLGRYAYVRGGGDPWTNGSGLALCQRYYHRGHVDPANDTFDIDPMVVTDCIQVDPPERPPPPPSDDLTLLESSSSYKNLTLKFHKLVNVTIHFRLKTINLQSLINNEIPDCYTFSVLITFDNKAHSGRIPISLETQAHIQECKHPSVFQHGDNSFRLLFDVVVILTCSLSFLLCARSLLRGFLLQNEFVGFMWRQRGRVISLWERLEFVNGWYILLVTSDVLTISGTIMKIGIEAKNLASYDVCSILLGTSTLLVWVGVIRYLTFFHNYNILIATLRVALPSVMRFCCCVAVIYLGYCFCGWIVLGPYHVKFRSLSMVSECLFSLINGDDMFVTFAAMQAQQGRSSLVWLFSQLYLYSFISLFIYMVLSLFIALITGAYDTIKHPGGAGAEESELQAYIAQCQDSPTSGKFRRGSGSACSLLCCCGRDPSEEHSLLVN

activation, inactive:
Nc1nc(-c2cccc(F)c2)cs1 0.123%
CCCCc1c(-c2ccccc2OC)ncn1Cc1cccc(-c2ccccc2)c1 1.29%
Cc1ccc(NC2C(=O)NC(=O)NC2=O)cc1 6.38%
CCn1c(SCc2nc3ccccc3c(=O)[nH]2)nc2ccccc21 2.12%
O=S(=O)(Nc1cccc(-c2ccc3nncn3n2)c1)c1cccc(F)c1 3.48%
O=S(=O)(NCCO)c1ccc2c(c1)Cc1cc(S(=O)(=O)NCCO)ccc1-2 -0.0816%
Cc1ccc(CN2CCN(C3CCN(C(=O)c4ccc(C)cc4)CC3)C(=O)C2=O)cc1 -0.66%
CCOC(=O)c1cc2c(=O)n3ccccc3nc2n(CC2CCCO2)c1=NC(=O)c1ccc(C)cc1 (stereo not given) 2.3%
O=C(NCCc1ccccc1)c1ccc(CSc2nc3ccncc3n2Cc2ccc(F)cc2)cc1 2.33%
CCCCC(=O)NC(=S)Nc1ccccc1N1CCCCC1 0.758%
Cc1cccc(-c2nc(C#N)c(N3CCCCC3)o2)c1 2.46%
O=C(NCCc1cccs1)c1ccc(Cl)c(Cl)c1 2.59%
CCOC(=O)c1ccc(-n2c(N)c(C(=O)NCc3ccco3)sc2=S)cc1 1.21%
CCOC(=O)c1ccc2nc3c(cc2c1)CCS3 -0.0349%
CCOC(=O)CCCCCC(=O)Nc1ccc2c(c1)C(=O)N([C@H](C)CO)C[C@H](C)[C@@H](CN(C)S(C)(=O)=O)OCCCC[C@@H](C)O2 -0.677%
O=C(Nc1ccnn1C1CCN(Cc2ccc(OC(F)F)cc2)CC1)C1CCCC1 0.344%

activation, active:
CCN(CC)c1ccc2cc(C(C)=O)c(=O)oc2c1 71.9%
CC(C)C[C@H]1CN=C(Nc2ccccc2)N1CCc1cccc(F)c1 79.9%
CCCCCCCC(=O)N/N=C(\C)c1ccc(O)cc1O 56.6%
CCCOc1ccc(Cc2nn3c(=O)/c(=C/c4ccco4)sc3nc2=O)cc1 50.4%
COc1cc2nc(/C=C/c3ccc(N(C)C)cc3)sc2cc1SC 120%
Cn1c(=O)c(NCCc2ccccc2)c2c3c(cccc31)C(=O)c1ccccc1-2 104%
COc1ccccc1N1CCN(C(=O)c2cnn(-c3ccc(C)c(C)c3)c2C2CCN(C(=O)OC(C)(C)C)CC2)CC1 58.7%
CC(C)(C)c1ccc(C(=O)NCCC(=O)N2CCN(c3ncccn3)CC2)cc1 69.2%
CN1CCC/C1=C/C=C1\SC(=S)NC1=O 58.1%
CSC1=NSC2=NC(=O)/C(=C/c3coc4ccccc4c3=O)C(=N)N12 77.3%
O=C1c2cccc3c(O)ccc(c23)C(=O)N1c1ccc(Cl)cc1 104%
CCN(CC)c1ccc(/C=C(\C#N)C(=O)c2ccc(Br)cc2)cc1 79.2%

activation, inconclusive:
CC[C@@]1(O)C(=O)OCc2c1cc1n(c2=O)Cc2cc3c(CN(C)C)c(O)ccc3nc2-1 33.8%
Cc1ccc(N2CC(NS(=O)(=O)c3cccnc3)CC2=O)cc1C (stereo not given) 31.5%
O=C(NNC(=S)NC(=O)c1cccc([N+](=O)[O-])c1)c1ccc(Br)cc1 31%
Cc1ccc2c(c1)c1c3n2CCN(C(=O)c2cccc(C(F)(F)F)c2)C3CCC1 (stereo not given) 42.7%
CCc1sc(-c2cc3ccc(O)cc3oc2=O)nc1-c1ccc(C)cc1 41.2%
N#C/C(=C\c1ccc(N2CCOCC2)o1)C(=O)NCCc1ccccc1 33.8%
CC(C)(C)OC(=O)N1CCC(c2c(C(=O)N3CCN(Cc4ccccc4)CC3)cnn2-c2ccc(Cl)cc2)CC1 35.1%
CCCCn1nnnc1C(c1ccccc1)N1CCN(c2ccc(C)cc2)CC1 (stereo not given) 38.7%
O=C(Cn1c(=O)cnc2ccccc21)N1CCN(S(=O)(=O)c2ccccc2Br)CC1 41.8%
CCCCCCc1cc2cc(-c3nnc(-c4ccccc4O)o3)c(=O)oc2cc1O 47.7%
COc1cc(Cl)c(C)cc1NC(=O)c1cnc(N2CCOCC2)c2ccccc12 42.8%
C=CCn1c(SC(C)CC)nc(O)cc1=O (stereo not given) 37.2%
COc1ccc(-c2cc(C(=O)N3CCN(c4ccccc4OC)CC3)no2)cc1OC 34.6%
COc1cccc(N2CCN(C(=O)c3cnn(-c4ccc(C)cc4C)c3C3CCN(C(=O)OC(C)(C)C)CC3)CC2)c1 35.7%
CCOc1ccccc1N1CC(c2nc3ccccc3n2Cc2c(C)cc(C)cc2C)CC1=O (stereo not given) 33.1%
COC(=O)c1sc(NC(=S)NC(=O)c2ccccc2C)nc1C 35.7%
Cc1ccccc1C(=O)Nc1cc(-c2cc(C(C)(C)C)oc2C)nn1C 42.4%
CCOc1ccc(Nc2c(S(=O)(=O)c3ccc(C)cc3)cnc3ccc(OC)cc23)cc1 42.7%
CC1CCCCN1CC(=O)Nc1ccccc1Sc1ccccc1 (stereo not given) 32.5%
CCN(CC)c1ccc2nc3c(=O)n(C)c(=O)n(C)c3nc2c1 33.6%
COc1cc2c(cc1OC)C(C1C(=O)CC(C)(C)CC1=O)N(C(=O)CCl)CC2 (stereo not given) 43.2%
Cc1cc(C)n(-c2cc(C(C)(C)C)nc3c(-c4ccccc4)cnn23)n1 39.1%
CCCCN1CC(COCc2ccccc2)Oc2cccc(OCCN3C(=O)[C@@H]4[C@H](C3=O)C3C=C[C@H]4C3)c2S1(=O)=O (stereo not given in full) 40.4%
CC(C)(C)C(=O)CSc1ncnc2sc3c(c12)CCC3 34.3%
CC1CCN(c2ccc3c(c2)S(=O)(=O)c2cccc(C(=O)NCc4cccc(F)c4)c2C3=O)CC1 41.5%
O=C(OCCN1C(=O)c2cccc3c(N4CCOCC4)ccc(c23)C1=O)c1ccccc1Cl 39%
Cc1ccc(C(c2nnnn2CC2CCCO2)N2CCN(c3cccc(C)c3C)CC2)cc1 (stereo not given) 49.1%
